Out of some 110,000 compounds screened, about 230 (0.21%) showed an effect of 50% or more. This is one part of the list.
What follows are molecules tested against DPAP1 (Plasmodium falciparum, UniProt Q8IIJ9) (assay: primary screen, percent inhibition; read by cleavage of a fluorogenic dipeptide substrate; higher = more effect of the substance).
Parameters: species or system P. falciparum D10 trophozoite lysates; single well
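Further: 30 min substrate incubation versus DMSO and 10 µM JCP410 controls.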

Sequence of DPAP1 (Q8IIJ9 whole entry, looked up): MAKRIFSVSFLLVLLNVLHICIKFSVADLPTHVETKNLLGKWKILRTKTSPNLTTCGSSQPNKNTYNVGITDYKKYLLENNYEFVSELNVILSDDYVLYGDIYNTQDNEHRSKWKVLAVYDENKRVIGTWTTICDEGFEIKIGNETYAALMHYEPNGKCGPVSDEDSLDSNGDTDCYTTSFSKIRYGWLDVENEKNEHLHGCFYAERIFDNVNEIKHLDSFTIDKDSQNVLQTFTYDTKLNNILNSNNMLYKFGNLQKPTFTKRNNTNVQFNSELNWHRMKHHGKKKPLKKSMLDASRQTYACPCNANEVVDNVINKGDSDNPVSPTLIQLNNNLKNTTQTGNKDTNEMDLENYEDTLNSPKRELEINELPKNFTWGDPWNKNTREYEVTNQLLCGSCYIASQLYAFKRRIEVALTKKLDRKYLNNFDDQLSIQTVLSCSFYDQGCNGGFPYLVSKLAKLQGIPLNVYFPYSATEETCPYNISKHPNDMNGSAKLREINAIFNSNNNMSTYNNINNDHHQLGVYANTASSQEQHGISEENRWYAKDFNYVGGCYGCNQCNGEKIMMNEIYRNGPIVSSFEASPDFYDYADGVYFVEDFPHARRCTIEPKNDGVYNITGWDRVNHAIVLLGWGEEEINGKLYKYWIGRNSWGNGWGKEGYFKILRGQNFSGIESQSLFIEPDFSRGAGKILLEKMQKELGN

| SMILES | % Inhibition @ 10 uM |
| --- | --- |
| COc1ccc(NC(=O)C2=C(C)NC(=O)NC2c2cc(OC)c(OC)c(OC)c2)cc1 (stereo not drawn) | 12.1% |
| CC(=O)C12CCCCC1CC1C3CC=C4CC(O)CCC4(C)C3CCC12C (stereo not drawn) | -3.27% |
| Cc1ccc(-c2csc(-c3cc4c(ccc5ccccc54)oc3=O)n2)c(C)c1 | -4.11% |
| CC12CCC(C(=O)Nc3ccccc3C(F)(F)F)(C(=O)C1=O)C2(C)C (stereo not drawn) | 4.98% |
| Cn1c(-c2cc[n+](C)c3ccccc23)[n+](C)c2ccccc21 | -0.615% |
| O=C1c2ccccc2C(=O)N1CC1c2ccccc2CCN1C(=O)C1CCCCC1 (stereo not drawn) | -1.54% |
| COc1cc(C2C(C#N)=C(N)Oc3[nH]nc(CSc4ccc(C)cc4)c32)cc(OC)c1OC (stereo not drawn) | -0.941% |
| CC[C@H](NC(=O)[C@H](CS(=O)(=O)Cc1ccccc1)NC(=O)N1CCOCC1)C(=O)c1nccs1 | -0.214% |
| COc1ccc(CNC(=O)c2cc(NS(=O)(=O)c3ccc(C)cc3)ccn2)cc1 | 6.31% |
| CC(Cc1ccccc1F)N(C)CCN(C)C (stereo not drawn) | -1.75% |
| CC(C)N1C(=O)S/C(=C\c2cccn2-c2cccc(C(=O)O)c2)C1=O | 9.73% |
| CCCC(C)C(=O)Nc1nc2ccccc2s1 (stereo not drawn) | -8.26% |
| Cc1nnc(N2C(=O)c3ccccc3C2=O)s1 | 2.54% |
| O=C(O)CCC(=O)N1CC=C(c2ccccc2)CC1 | 0.64% |
| COc1ccccc1OCc1ccc(C(=O)NCc2ccccn2)cc1 | -7.98% |
| COc1cccc(Oc2cc(F)nc(N)n2)c1 | 2.92% |
| Cc1ccc(-c2ccccc2)n1-c1ccccc1C(=O)O | 4.55% |
| COc1cc(CCNC(=O)CCc2c(C)nc3c4cccnc4nn3c2C)cc(OC)c1OC | -0.0115% |
| Cc1cc(Cl)ccc1OCCCc1c(C)n[nH]c1C | -0.553% |
| COc1ccc(CN2CC(C(=O)NCc3ccc4c(c3)OCO4)CC2=O)cc1 (stereo not drawn) | -1.21% |
| COc1ccc2c(CNCc3ccco3)c(C(=O)O)[nH]c2c1 | 2.6% |
| O=C(c1ccc(Br)cc1)N(Cc1ccc(Cl)cc1)C1CCS(=O)(=O)C1 (stereo not drawn) | -11% |
| CCN(CC)CCNC(=O)c1nc(-c2cccs2)no1 | -0.0678% |
| CCOC(=O)c1ccc(-n2c(C)c3c(OC)cccc(=O)c3c2C)cc1 | -0.958% |
| COc1ccc(-c2nn(C)c3sc(C(=O)NCCCN4CCOCC4)cc23)cc1OC | 1.23% |
| Cc1ccc(CCNC(=O)CS(=O)(=O)Cc2nc(-c3ccc(C)cc3)oc2C)cc1 | -3.7% |
| CCOc1ccc(/C=C2/SC(=O)NC2=O)cc1OC | 1.12% |

Reference: paper PMC6919601, “Identification of Plasmodium dipeptidyl aminopeptidase allosteric inhibitors by high throughput screening” (PLoS ONE, 2019)
